# Results taken from publication PMC4336329 (PLoS ONE, 2015).
# About 2,200 (0.71%) of roughly 310,000 compounds showed an effect of 50% or more. The effect is printed as a negative number. This is one part of the list.
# Molecular target: human ether-à-go-go-related gene (hERG) potassium channel (human, UniProt Q12809)
# Assay: primary screen, population patch clamp on CHO cells stably expressing hERG
# human ether-à-go-go-related gene (hERG) potassium channel, sequence (Q12809 whole entry, looked up): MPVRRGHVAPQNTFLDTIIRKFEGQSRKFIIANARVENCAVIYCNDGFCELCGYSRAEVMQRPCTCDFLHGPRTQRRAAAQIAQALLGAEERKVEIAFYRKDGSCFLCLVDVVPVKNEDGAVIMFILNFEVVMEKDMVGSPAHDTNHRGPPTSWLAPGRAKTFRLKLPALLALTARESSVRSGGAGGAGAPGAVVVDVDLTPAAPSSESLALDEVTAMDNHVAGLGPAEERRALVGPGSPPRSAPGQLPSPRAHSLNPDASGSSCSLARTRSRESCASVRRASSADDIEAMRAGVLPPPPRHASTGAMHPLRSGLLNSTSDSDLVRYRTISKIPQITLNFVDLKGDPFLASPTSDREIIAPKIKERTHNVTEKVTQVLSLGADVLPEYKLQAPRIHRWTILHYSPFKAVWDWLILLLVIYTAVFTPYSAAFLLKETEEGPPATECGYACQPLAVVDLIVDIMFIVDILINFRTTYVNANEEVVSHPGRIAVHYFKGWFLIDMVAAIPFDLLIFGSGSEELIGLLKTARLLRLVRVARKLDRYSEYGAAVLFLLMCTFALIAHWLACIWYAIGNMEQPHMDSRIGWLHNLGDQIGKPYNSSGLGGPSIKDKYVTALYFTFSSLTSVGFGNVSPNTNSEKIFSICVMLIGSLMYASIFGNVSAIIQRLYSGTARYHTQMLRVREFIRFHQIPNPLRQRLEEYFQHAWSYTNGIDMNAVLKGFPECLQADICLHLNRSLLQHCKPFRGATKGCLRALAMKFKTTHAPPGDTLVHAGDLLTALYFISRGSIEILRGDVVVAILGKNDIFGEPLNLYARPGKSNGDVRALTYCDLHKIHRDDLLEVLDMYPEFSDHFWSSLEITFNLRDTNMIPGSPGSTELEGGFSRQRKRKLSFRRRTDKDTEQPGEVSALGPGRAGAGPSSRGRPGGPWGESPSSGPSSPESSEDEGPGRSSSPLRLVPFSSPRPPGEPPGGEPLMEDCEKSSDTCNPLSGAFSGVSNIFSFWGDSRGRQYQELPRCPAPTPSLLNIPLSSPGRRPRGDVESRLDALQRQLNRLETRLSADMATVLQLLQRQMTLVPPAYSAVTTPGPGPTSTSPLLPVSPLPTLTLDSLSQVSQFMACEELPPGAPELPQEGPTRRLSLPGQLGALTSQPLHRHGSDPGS
row,Structure (SMILES),"hERG current change (%, negative = inhibition) at 1uM"
1,CCC(=O)N1CCN(c2ccc(NC(=S)NC(=O)c3cccc([N+](=O)[O-])c3)cc2)CC1,3.45%
2,O=C(c1cc2n(n1)C(C(F)(F)F)CC(c1ccco1)N2)N1CCN(c2ccccn2)CC1 (stereo not shown),5.81%
3,CN(C)S(=O)(=O)c1cccc(NC(=O)CO/N=C(\N)c2ccccc2)c1,12.7%
4,O=C1CC(c2ccco2)CC(O)=C1C=Nc1cc(Cl)cc(Cl)c1 (stereo not shown),-5.4%
5,COC(=O)c1ccccc1NC(=O)CN1CCOCC1,5.34%
6,O=C(Cc1ccccc1)Nc1cccc(N2CCCC2)c1,-5.67%
7,Cc1ccc2nc(-c3ccccc3)oc(=O)c2c1,12.8%
8,COc1cccc(N=c2oc3ccc(OC)cc3cc2-c2nc3ccccc3[nH]2)c1,17.9%
9,CCC(C)c1ccc(NC(=S)NCCn2cc(Br)cn2)cc1 (stereo not shown),9.71%
10,CCCCNC(=S)Nc1ccc(OC)nc1,7.83%
11,Clc1cccc(Cc2nn[nH]n2)c1,17.5%
12,COc1ccc(CCC(=O)N2CCC3(CC2)OCCO3)cc1,-5.44%
13,CC(C)(C)c1ccc(C(=O)Nc2sc3c(c2C(=O)O)CCC3)cc1,11.5%
14,CC(C)(CO)NS(=O)(=O)c1ccc2c(c1)oc(=O)c1cc(S(=O)(=O)NC(C)(C)CO)ccc12,3.06%
15,CCn1c(SCC#N)nc2c(c1=O)C1(CCCC1)Cc1ccccc1-2,-4.86%
16,Clc1ccc(-c2cc(-c3ccccn3)on2)c(Cl)c1,10.5%
17,COc1ccccc1NC(=S)N=Nc1c(O)[nH]c2ccc(Br)cc12,8.37%
18,Cc1cc2c(cc1C)-c1nnnn1C(C)(C)C2,17.2%
19,C=CCNC(=O)CSc1nc2scc(-c3ccco3)c2c(=O)n1CC=C,-4.06%
20,Cc1ccc(CNC(=O)c2ccc(NC3=NC4CS(=O)(=O)CC4S3)cc2)cc1 (stereo not shown),2.79%
21,O=C(O)c1cc(Cl)c(Cl)cc1C(=O)Nc1cccnc1,12.6%
22,O=C(O)CCc1ccc(-c2cccs2)n1-c1ccc(C(=O)O)cc1,12.4%
23,Cc1cc(C)cc(-n2ncc3c2CCCC3NC(=O)c2cc(C)n(C)n2)c1 (stereo not shown),11.2%
24,O=C(O)c1cccc(Cn2c(Cl)c(/C=N/NC(=O)c3cccc(O)c3)sc2=O)c1,16.3%
25,CC1CCN(CCCNC(=O)C2CC(=O)N(CCc3ccccc3)C2)CC1 (stereo not shown),6.56%
